Experimental data from the supplement of paper PMC10126150.
Values marked as one replicate rest on one cluster of the flow cell; about a third of the high ones do not repeat.

Test system: ATP
Assay: switch fluorescence ratio, 500 uM ATP over buffer (Cy3 cluster intensity, sum of 5 cycles each) (fold (ratio)); higher = stronger signal-on switching upon ATP binding; sequences stand for … in TCGTCGGCAGCGTCAGATGTGTATAAGAGACAGTTTTTTTTTTTTTTTTTTTTTTTTT…TC
Details: aptamer strand: ATP DNA aptamer (quencher-CACCTGGGGGAGTATTGCGGAGGAAGG + anchor), 100 nM annealed; ATP concentration: 500 uM; one replicate
Summary of the method: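 Exposure to 500 uM ATP lasted 15 min at 22 °C before imaging, and a selection-buffer image was taken beforehand, for Cy3-labelled switching-strand clusters on a modified Illumina MiSeq flow-cell annealed to 100 nM quencher-labelled ATP aptamer. Five buffer/ATP cycles were run with NaOH stripping and re-annealing between them. The fluorescence ratio per cluster is summed target-cycle over summed buffer-cycle Cy3 intensity, averaged per switch-domain sequence. Clusters outside 100-1000 RFU were excluded.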

| Sequence | switch fluorescence ratio |
| --- | --- |
| AATCACGTCC | 1.11 |
| CTCGTACAAT | 1.24 |
| ATTTAAGGTC | 0.95 |
| CTTGGGCCTC | 0.97 |
| GGTGGGAAAC | 1.05 |
| GTCCACCG | 0.986 |
| GGGCCAAATC | 1 |
| CAGCGTGCAT | 1.01 |
| TCTTGGATGC | 1.01 |
| TATTTCAGCG | 1 |
| CCGACACTGA | 3.85 |
| GCAACGGTAA | 1.1 |
| TATATGTCGC | 0.974 |
| TTTTAGGA | 1 |
| TTAACGAGGG | 1 |
| TTGTCCACTA | 0.98 |
| ACATTGTGGT | 0.979 |
| GGGATGGCGC | 1.01 |
| AGGAATGTAT | 0.974 |
| TTGAATAATA | 1.01 |
| TAAAGCGACG | 1.02 |
| GCGCTCACTT | 1.06 |

| Sequence | switch fluorescence ratio |
| --- | --- |
| GGTTACTTAA | 1.02 |
| TAGGCTGATC | 0.994 |
| TGCGTCTGGT | 1.03 |
| GTTAGATCTG | 1 |
| ATCTTATACC | 1.1 |
| GGGATGGAAT | 0.983 |
| TTCGGGCCTC | 1.08 |
| TCGGCGCTAG | 0.98 |
| AGATTCTCGC | 1.04 |
| TATTGTCAAG | 1.01 |
| GTGTGCGCCT | 1.02 |
| ACAGAGGCTG | 1.02 |
| ATCTCATCGG | 1.06 |
| TGGAAAGCGA | 1.03 |
| AATTGGTAGT | 0.971 |
| GTTCGTTGTA | 1.01 |
| TCGGTTGCAG | 0.954 |
| CGGCGTAGTA | 1.02 |
| TAGTCTTTGA | 0.97 |
| CTCGTTTTTA | 1.02 |
| AGCACACTTT | 1.05 |
| TGAAGCGGCC | 1.11 |

| Sequence | switch fluorescence ratio |
| --- | --- |
| CCAGCTGGTG | 1.14 |
| GCCATATGTT | 1.02 |
| CCCTAATCAT | 0.959 |
| ACCGTTGTAC | 2.73 |
| CTCTCACTCG | 1.02 |
| ATTCAATAAT | 1.02 |
| CTGCACTGAG | 1.04 |
| CATGGAAGAC | 1.32 |
| CGGTTAGGGC | 1.05 |
| TTTCGATAAC | 1.02 |
| CGCGTACTCG | 1.89 |
| GGAAGTGTTG | 1 |
| CGCGGCACAC | 4.82 |
| AAGGAGAGTA | 0.989 |
| GCTCCAGGTC | 1.75 |
| GCGCGGGCCT | 0.972 |
| AACCTGGGTT | 0.983 |
| CATCACGTGT | 0.962 |
| CACTCCCTGT | 1.24 |
| GTCAGCTTAT | 1.04 |
| GGCGTAATGT | 1.05 |
| AAGTTGGTAG | 0.968 |

| Sequence | switch fluorescence ratio |
| --- | --- |
| TTCGTTAGCT | 1.02 |
| TGCCAGATCA | 0.98 |
| CGGTTCTAGC | 0.967 |
| CTTGCCGTCC | 1.01 |
| TAGGAGAGTG | 0.993 |
| ACGCACAGTG | 1.25 |
| AGTCATGCGG | 1.03 |
| GTTAGCACGG | 1 |
| ATCCGGGAAT | 1.01 |
| ATGATACCA | 0.936 |
| TTAACGCGCC | 1.11 |
| CACAGATCCA | 1.05 |
| GGACGCGCGG | 1.01 |
| CTCGCACCAT | 1.15 |
| CCTGGAGTGC | 1.1 |
| GACCTGACTC | 2.28 |
| CGGACGTCAG | 0.97 |
| CCTGGACAA | 1.46 |
| TTTCCTTACG | 1.94 |
